Measured values taken from paper PMC4336329 (PLoS ONE, 2015).
The campaign covered roughly 310,000 compounds. About 2,200 (0.71%) showed an effect of 50% or more. The effect is printed as a negative number. This is one part of the list.

biological target: human ether-à-go-go-related gene (hERG) potassium channel (human, UniProt Q12809); assay: primary screen, population patch clamp on CHO cells stably expressing hERG
Sequence (Q12809 whole entry, looked up): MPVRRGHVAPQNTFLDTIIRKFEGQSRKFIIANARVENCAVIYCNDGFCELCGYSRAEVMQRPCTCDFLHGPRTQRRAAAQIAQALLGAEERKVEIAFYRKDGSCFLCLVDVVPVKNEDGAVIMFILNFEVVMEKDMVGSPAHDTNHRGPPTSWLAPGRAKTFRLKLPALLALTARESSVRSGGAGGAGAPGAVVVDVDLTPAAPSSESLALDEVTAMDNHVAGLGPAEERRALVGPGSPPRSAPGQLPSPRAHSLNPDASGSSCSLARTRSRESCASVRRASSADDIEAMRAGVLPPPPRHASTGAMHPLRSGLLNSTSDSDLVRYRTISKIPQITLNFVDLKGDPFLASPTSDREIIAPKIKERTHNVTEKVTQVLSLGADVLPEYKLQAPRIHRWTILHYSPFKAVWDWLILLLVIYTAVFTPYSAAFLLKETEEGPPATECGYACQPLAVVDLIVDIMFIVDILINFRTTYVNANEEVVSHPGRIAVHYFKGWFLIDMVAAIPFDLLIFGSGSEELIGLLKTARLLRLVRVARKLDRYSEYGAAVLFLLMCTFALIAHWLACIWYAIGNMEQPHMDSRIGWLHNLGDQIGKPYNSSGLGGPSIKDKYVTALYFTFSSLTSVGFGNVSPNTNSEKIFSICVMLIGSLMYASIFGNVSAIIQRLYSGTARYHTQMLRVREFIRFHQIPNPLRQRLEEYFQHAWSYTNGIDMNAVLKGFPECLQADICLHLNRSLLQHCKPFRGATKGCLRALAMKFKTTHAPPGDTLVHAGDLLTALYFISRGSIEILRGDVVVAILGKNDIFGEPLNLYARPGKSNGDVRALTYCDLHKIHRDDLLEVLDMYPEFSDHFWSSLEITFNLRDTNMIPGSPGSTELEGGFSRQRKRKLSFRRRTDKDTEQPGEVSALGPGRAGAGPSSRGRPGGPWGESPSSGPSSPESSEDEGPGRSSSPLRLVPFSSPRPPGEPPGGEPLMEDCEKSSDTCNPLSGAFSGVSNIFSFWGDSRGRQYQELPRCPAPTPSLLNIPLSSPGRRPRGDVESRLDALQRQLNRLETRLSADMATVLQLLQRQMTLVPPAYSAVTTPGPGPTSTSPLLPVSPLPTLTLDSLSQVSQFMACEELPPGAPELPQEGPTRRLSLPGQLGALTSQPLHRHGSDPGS

Row | Compound | hERG current change (%, negative = inhibition) at 1uM
1 | COC(=O)c1sccc1NC(=O)c1cc(OC)cc(OC)c1 | 2.85%
2 | C=C(C)COc1ccc2c(C)c(C)c(=O)oc2c1OCC(=C)C | 7.02%
3 | COc1cccc(OC)c1C(=O)NC(=S)Nc1ccc2oc(=O)ccc2c1 | 12%
4 | COc1ccc(CN(C)CC(O)COC(c2ccccc2)c2ccccc2)c(OC)c1OC (centres unmarked) | -43.6%
5 | CC1(C)C=Cc2c(ccc(-c3coc4cc(O)ccc4c3=O)c2O)O1 | 3.22%
6 | CN1CCN(CC(=O)N2c3ccccc3Sc3ccccc32)CC1 | 5.24%
7 | CCN=C1S/C(=C\c2cc(Br)c(O)c(OC)c2)C(=O)N1CC | 9.92%
8 | COc1ccc(CC(=O)NCC(=O)NCc2cc(=O)n(C)c(=O)n2C)cc1 | 12.9%
9 | COC(=O)c1c(C)oc2ccc(N(C(=O)c3ccncc3)S(=O)(=O)c3ccccc3)cc12 | -1.4%
10 | CC(=O)NC1(C(F)(F)F)C(=O)Nc2c1c(=O)n(C)c(=O)n2C (centres unmarked) | 12.1%
11 | C=CCNC(=O)C(=O)c1c(-c2ccccc2)[nH]c2ccccc12 | 14.3%
12 | CN(CC(=O)Nc1ccc(F)c(F)c1F)C(=O)c1cc(-c2ccncc2)nc2ccccc12 | 0.428%
13 | CC(=O)NCCNC(=O)c1ccc(Sc2ccccc2)c([N+](=O)[O-])c1 | -15.6%
14 | CC(Cc1ccccc1)(NC(=O)CN)c1ccccc1.Cl (centres unmarked) | 13.4%
15 | COc1ccc(CN(C)Cc2nc(Cc3cccc(F)c3)no2)c2cccnc12 | 9.83%
16 | c1ccc(-c2csc3ncnc(N4CCc5ccccc5C4)c23)cc1 | 4.63%
17 | O=C(CSc1nccc(=O)[nH]1)Nc1ccc(Oc2ccccc2)cc1 | 10.4%
18 | CCc1ccc(-c2csc3nc[nH]c(=O)c23)cc1 | 6.72%
19 | COc1cccc(Nc2nc(N)nc(C(F)(F)F)n2)c1 | 13.7%

Row | Compound | hERG current change (%, negative = inhibition) at 1uM
20 | COCCN1C(=O)N[C@@H](CCc2ccccc2)C(C(C)=O)=C1C | 5.21%
21 | COc1cccc(/C=N/NC(=O)CNC(=O)COc2ccccc2)c1O | 6.16%
22 | COc1cc(/C=C2\SC(N)=NC2=O)cc(Cl)c1O | 15.9%
23 | CCC(=O)NC(=S)Nc1ccc(N2CCOCC2)cc1 | 4.88%
24 | CN(C1CCCCC1)S(=O)(=O)c1ccc(NC(=O)c2ccc(Br)o2)cc1 | 6.33%
25 | N#C/C(=C\c1ccc(F)cc1F)S(=O)(=O)c1ccccn1 | 8.65%
26 | O=C(Nc1ccc(Nc2ccccc2)cc1)c1ccc(Cl)cc1[N+](=O)[O-] | 9.44%
27 | N#Cc1cccc(C#N)c1Oc1ccc(S(=O)(=O)Nc2ccccc2)cc1 | 16%
28 | Cc1cc(=O)oc(C)c1C(=O)NCCN1CCOCC1 | 7%
29 | CCOc1cc(CNCc2cccnc2)cc(Br)c1OCC(N)=O.Cl | 8.87%
30 | COc1ccc(Cl)cc1-c1nc(SCC(=O)NC2CC2)n[nH]1 | -0.229%
31 | CCN(CC)CC(=O)c1c[nH]c2ccc(OC)cc12 | 3.98%
32 | Cc1onc(-c2c(Cl)cccc2Cl)c1C(=O)Nc1ccc2c(c1)OCO2 | 0.619%
33 | CCOc1cc(CO)cc(Br)c1OCC(N)=O | 16.2%
34 | COc1ccccc1C(=O)Nc1ccc(S(=O)(=O)NC2=NCCCCC2)cc1 | 1.87%
35 | O=C(CSc1nnc(-c2ccccc2)c(-c2ccccc2)n1)Nc1ncc(Cl)cc1Cl | 4.86%
36 | CC(C)CN(CCNC(=O)CN1C(=O)CSc2ccc(S(=O)(=O)N3CCOCC3)cc21)CC(C)C | 3.98%
37 | CC(OC(=O)c1cc(=O)[nH]c2ccccc12)C(=O)Nc1ccccc1F (centres unmarked) | 7.73%
38 | COc1cccc(-n2c(CNc3ccc(F)cc3)nnc2SCC(N)=O)c1 | 4.77%

Row | Compound | hERG current change (%, negative = inhibition) at 1uM
39 | CCc1c(C#N)c(SCCC(=O)Nc2ccc(C)cc2)nc2c1C(=O)CC(C)(C)C2 | 12.4%
40 | COc1ccc(NC(=S)N(CCCN2CCCC(C)C2)Cc2cccs2)cc1 (centres unmarked) | -62.4%
41 | CCC1CCc2c(sc(NC(=O)C3c4ccccc4Oc4ccccc43)c2C(N)=O)C1 (centres unmarked) | 0.625%
42 | O=C(Nc1ccccc1Cl)C1CCN(S(=O)(=O)c2cccc3nonc23)CC1 | 13.9%
43 | COc1ccc(Cl)cc1NC(=O)CN(C)C(=O)c1cccc(-n2cnnn2)c1 | 3.14%
44 | CCCC[C@@H]1CCCO[C@@](C(=O)NCc2ccc(C)o2)(C(F)(F)F)C1 | 7.81%
45 | COc1ccccc1CNc1ncnc2cc(OC)c(OC)cc12 | -2.09%
46 | CCOc1ccccc1C(=O)Nc1ccc2nc3n(c(=O)c2c1)CCCCC3 | 9.28%
47 | Cc1ccc(NNS(=O)(=O)c2ccc(C)cc2)cc1 | -6.46%
48 | O=C(NCc1ccc(F)cc1)c1cc2c(cc1Cl)N1CCCCCC1=NS2(=O)=O | 6.81%
49 | CC/C(O)=C1\C(=O)CC(c2ccccc2)CC1=NC(C)C (centres unmarked) | 9.11%
50 | COc1ccc(NC(=O)Nc2nnc(CC(=O)NCc3ccccc3)s2)cc1 | 8.48%
51 | CCOc1ccc(C2c3c(oc4cc(C)c(C)cc4c3=O)C(=O)N2CCCN2CCOCC2)cc1 (centres unmarked) | -1.14%
52 | CCC1(CC)Cc2ccccc2-c2nc(NCCCO)[nH]c(=O)c21 | 11.8%
53 | COc1ccc(Br)cc1CN1CCN(S(=O)(=O)Cc2ccccc2)CC1 | 7.09%
54 | Cc1[nH]n(-c2ccc([N+](=O)[O-])cc2)c(=O)c1C=NCCN1CCN(C(=O)C(C)C)CC1 | -19.5%
55 | Cc1ccccc1NC(=O)CCC(=O)N/N=C/c1ccncc1 | 21.4%
56 | C=CCNc1ncnc2c1cnn2-c1ccc(Cl)cc1 | 3.5%
